Some of the results follow. The energies were worked out here from pooled read counts, against the library average; single values are noisy.
Target: T1, Pho4 (S. cerevisiae) (UniProt P07270)
T1 sequence: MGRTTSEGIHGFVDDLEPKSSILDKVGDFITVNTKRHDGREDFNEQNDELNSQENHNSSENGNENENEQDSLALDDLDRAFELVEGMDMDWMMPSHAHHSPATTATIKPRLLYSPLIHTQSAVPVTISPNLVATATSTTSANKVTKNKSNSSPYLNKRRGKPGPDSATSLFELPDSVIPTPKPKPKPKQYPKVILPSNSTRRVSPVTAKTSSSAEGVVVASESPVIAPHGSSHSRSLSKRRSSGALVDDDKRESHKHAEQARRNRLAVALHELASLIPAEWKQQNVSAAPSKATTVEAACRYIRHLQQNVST
Assay: relative binding free energy (BET-seq); higher = weaker binding
Settings: reference: library average

Sequence	relative binding free energy [kcal/mol]
CGTATCACGTGTTATG	0.01
GGAGGCACGTGTGTCA	-0.12
AAGGGCACGTGAGCTT	0.08
TCTGGCACGTGCTGTT	-0.08
GGGATCACGTGTGTTC	0.25
CAGGGCACGTGGAGGT	-0.07
TAATGCACGTGCTGTT	-0.05
AAAGTCACGTGGGACG	0.05
TTTATCACGTGGGGAG	0.08
TGGTGCACGTGGCTCA	-0.02
TCAGTCACGTGTTTAT	0.06
GCTGTCACGTGTTCTT	0.24
GTGGGCACGTGGTGCA	-0.15
TGCATCACGTGGGATT	-0.05
GGGATCACGTGGACGG	0.17
TTGATCACGTGTGGGC	0.2
TCCGGCACGTGGAGGG	-0.07
GGAGACACGTGGTTTG	0.02
TTGACCACGTGATTGT	0.19
ACTTGCACGTGTGGGT	-0.02
CTGTACACGTGGAGGT	0
ATGTTCACGTGGGGCC	0.18
AGCGGCACGTGAGTGA	0.2
GTGGTCACGTGGCGTT	0.03
TTTGTCACGTGCCGTG	-0.05

Sequence	relative binding free energy [kcal/mol]
TGGTACACGTGTTTTA	0.11
TTGGACACGTGCTGTA	-0.04
GAAGTCACGTGAAGTG	0.32
TATAGCACGTGGGCAT	-0.17
GTAAACACGTGGATGT	-0.02
GTACTCACGTGAATGT	0.31
ACGTACACGTGGTTTT	0.08
ATGTTCACGTGTCGTA	0.22
ATGGGCACGTGAGGGT	0.19
GACGTCACGTGTATGG	0.29
CACGTCACGTGAGGGT	0.12
GATGGCACGTGTTATG	0.09
GTTGGCACGTGTCATT	0.06
TAGTGCACGTGCCTGG	-0.19
ATTTTCACGTGTGTGT	0.23
TCTGGCACGTGCATGG	-0.19
GGGATCACGTGTTTTT	0.34
TTGCTCACGTGCGGGG	0.1
TCGGGCACGTGGATGA	-0.12
CTGGTCACGTGGTGGT	0.01
CTGGGCACGTGGGGGG	-0.23
TATTACACGTGTTGTT	0.17
GTATGCACGTGTCGTA	0
GGGGACACGTGGATAA	0.13
TGTGTCACGTGTGTAG	0.22

Sequence	relative binding free energy [kcal/mol]
AAATACACGTGTTAGT	-0.02
ATTTGCACGTGCGGTA	-0.03
AGCGGCACGTGTCGTT	0.1
GTTGTCACGTGGGGGA	0.1
GATTGCACGTGGGGTG	-0.17
GTGTTCACGTGTTCTA	0.18
CTGGGCACGTGTGGTG	-0.12
AGGAGCACGTGGGCTA	-0.33
TTGGTCACGTGGATCA	0.32
GGTACCACGTGTTGGA	-0.03
GGTCTCACGTGCAGTT	0.27
ACTGTCACGTGTTTAG	0.14
GATGACACGTGTGGCT	0.16
TCTGGCACGTGGGACA	-0.07
GCTTGCACGTGGGCGG	-0.15
GATTACACGTGGATAG	0.21
GTAATCACGTGCGTTT	0.16
TTCGGCACGTGATATA	0.02
GATGTCACGTGTGTGC	0.27
GGGGTCACGTGAGCAT	0.25
TGGTGCACGTGATGAC	0.12
ATCAGCACGTGGGCGG	-0.27
GGATTCACGTGTATTT	0.29
AGTCGCACGTGGGGTG	-0.25
AGGGTCACGTGAGCGG	0.14

Sequence	relative binding free energy [kcal/mol]
TGTTACACGTGTTACT	0.03
AGTGTCACGTGGTTCG	0.05
TCTTGCACGTGTTGAG	0.01
TGGGTCACGTGTGACA	0.09
AGACTCACGTGTGGTA	0.35
TAAGGCACGTGTTTCT	-0.07
GTCTTCACGTGGGGGC	0.17
GTAGTCACGTGTCGGA	0.13
AAGGACACGTGTGGTT	-0.02
GTGCTCACGTGTATTT	0.26
TTATTCACGTGCGTAT	0.18
TTATACACGTGGAGTA	0
TGGCCCACGTGGTTGG	-0.3
ATCTTCACGTGGGGTA	0.12
TCGTGCACGTGGCGTT	-0.18
CTACGCACGTGGGGGT	-0.35
GTGTGCACGTGTGGGC	0.11
CCTGGCACGTGGGAAG	-0.08
GGGTTCACGTGGCGAT	0.24
GGCTGCACGTGCGGGG	-0.1
CTGTACACGTGTCTGG	0.12
TAGAGCACGTGGGTAT	-0.14
TGGAACACGTGGTGCG	0
GTGGTCACGTGTCTAG	0.1
GCTGGCACGTGGGGGT	-0.22

Sequence	relative binding free energy [kcal/mol]
TTAACCACGTGTGGTG	-0.03
TTGATCACGTGGCGAT	-0.01
TGGCGCACGTGAAGGG	0.18
GTGGTCACGTGTGAAA	0.25
TTGGGCACGTGCGGAC	-0.17
CGTGGCACGTGGCGGC	-0.14
GAGATCACGTGGTTCT	0.23
TATTTCACGTGTGAGT	0.27
AGTCTCACGTGATTAG	0.29
GTAGCCACGTGGGATG	0.03
AGGCTCACGTGGGAAA	0.27
TATGTCACGTGGTTAG	-0.03
ATCTTCACGTGTTGTA	0.15
TACTTCACGTGGTCGG	0.14
AAAGACACGTGAGGGT	0.27
TTGTTCACGTGTTTTG	0.27
GGTAGCACGTGGACGG	0.03
TGGGACACGTGTAAGT	0.12
CGGGCCACGTGACGGT	0.04
GTCATCACGTGGCGTG	0.16
AGTTCCACGTGTGTGA	0.07
AGTTGCACGTGGAAAA	0.18
AAAGACACGTGGGGAG	-0.1
TTGGACACGTGTGTTA	0.04
TTGTTCACGTGGGCTC	0.22

Sequence	relative binding free energy [kcal/mol]
GTTGACACGTGATATT	0.14
TTTGGCACGTGTAACT	-0.01
AAGTGCACGTGGTGTA	-0.17
TGGAACACGTGAGGTT	0.34
TCGGACACGTGGGTAT	-0.11
TGCATCACGTGAGGTG	0.38
AGATACACGTGAGGGG	0.18
TGCGGCACGTGTCAGA	0.05
TGAACCACGTGGGTTG	-0.26
TGAGTCACGTGAGATG	0.32
ATTGGCACGTGTGGTA	-0.08
AGAAGCACGTGCGGGG	-0.09
GTAGTCACGTGACGGT	0.17
TATCGCACGTGGGTTT	-0.26
GTTGACACGTGTTAAA	0.15
TGATGCACGTGCAGGG	-0.01
TGAGGCACGTGGTGGA	-0.09
GGGGTCACGTGATTAT	0.36
CTATGCACGTGGGTGG	-0.2
ATATGCACGTGTAGAG	-0.03
TGCCTCACGTGTGGTT	0.13

— the BET-seq Pho4 binding data (Le et al. 2018)
